Test results from PubChem BioAssay AID504832 (National Center for Advancing Translational Sciences (NCATS), 2011).
Among all 310,000 compounds or so, about 18,000 (5.8%) were called active. This list was built around the results that the source calls inconclusive (neither active nor inactive); the mix of calls is not that of the screen. Calls come from the whole dose curve; as a rule, active = well fitted inhibition curve with a large enough effect; inconclusive = small, poorly fitted or top-dose-only effect, or another doubt; inactive = no such curve, though single readings can be large or run the other way. Potencies of inconclusive entries are left out as doubtful fits.

assay: Primary qHTS for delayed death inhibitors of the malarial parasite plastid, 48 hour incubation; conditions: P. falciparum luciferase growth in erythrocytes; series mostly up to 28.7 µM
Summary of the method: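 Luciferase-expressing P. falciparum in infected erythrocytes (2% hematocrit, 0.1% parasitemia final) in RPMI 1640/0.5% Albumax were exposed to compound for 48 hours at 37 C, 5% CO2; growth read as luminescence.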
Potency is the fitted concentration of half-maximal effect; tags give direction and shape of the fitted curve.

| Compound | Potency |
| --- | --- |
| Oc1ccccc1-c1cc(C(F)(F)F)nc(-c2ccccc2)n1 | inconclusive [inhibitor, full curve] |
| COc1cc(/C=C\C(=O)NCc2ccc3c(c2)cc(C)n3C)cc(OC)c1OC | active: 11.7 µM |
| CC(C)(C)n1nnnc1C(c1ccc(C(F)(F)F)cc1)N(Cc1ccccc1)Cc1ccco1 (stereo not given) | inconclusive [inhibitor, partial curve] |
| Cc1ccc2[nH]c3c(c2c1)CN(C(=O)CN1CCN(Cc2ccc4c(c2)OCO4)CC1)CC3 | inconclusive [inhibitor, full curve] |
| CN(c1ccc(C(=O)Nc2nccs2)cc1)S(=O)(=O)c1ccccc1 | inconclusive [inhibitor, single point] |
| Cc1ccc(S(=O)(=O)NCCNC(=O)c2cc(OCC(F)(F)F)ccc2OCC(F)(F)F)cc1 | inconclusive [inhibitor, partial curve, poor fit] |
| O=C(COc1ccccc1)NCCSCc1ccco1 | inactive |
| O=C(NC(=S)Nc1ccccc1Cl)c1cnn2c(C(F)(F)F)cc(C(F)(F)F)nc12 | inconclusive [inhibitor, single point] |
| O=C(CSc1nc(=O)n2ccccc2n1)OCc1ccccc1 | inconclusive [inhibitor, single point] |
| O=S(=O)(N1CCOCC1)N1CCOCC1 | inactive |
| C/C(=N\NC(=O)c1ccccc1O)c1ccc(Br)s1 | active: 13.1 µM |
| Cc1cc(-c2ccc(C)c(S(=O)(=O)N3CCN(c4ccccn4)CC3)c2)on1 | inconclusive [inhibitor, single point] |
| CN1C(=O)C(=Cc2ccccc2OCc2ccccc2Cl)C(=O)N(C)C1=O | inactive |
| CNC(=O)CCn1nc(-c2ccccc2)c2ccccc2c1=O | inactive |
| CC(C)N1CCN(c2ccc(OC[C@H]3CO[C@](Cn4cncn4)(c4ccc(Cl)cc4Cl)O3)cc2)CC1 | active: 13.1 µM |
| COc1ccc(OC)c(CN2CCC(Cc3ccccc3)CC2)c1 | inconclusive [inhibitor, single point] |
| Cn1c2c(c(=O)n(C)c1=O)CN(CCN1CCNCC1)CN2 | inconclusive [inhibitor, full curve, poor fit] |
| Fc1ccc(N2CCN(C3CCC(c4ccccc4)CC3)CC2)cc1 (stereo not given) | inconclusive [inhibitor, single point] |
| COc1ccc(S(=O)(=O)N2CCN(c3cc(-c4ccccc4)nc4ncnn34)CC2)cc1 | inactive |
| CC(C)CNC(=O)CN1c2cccc3cccc(c23)S1(=O)=O | inactive |
